Measured values taken from PubChem BioAssay AID463173 (ICCB-Longwood Screening Facility, Harvard Medical School, 2010).
Among all 52,000 compounds or so, about 1,700 (3.3%) were called active. No stated cut-off is given here; in the data, active means survival mostly below about 52% (no sharp cut-off); inactive means mostly above about 56%. This is one part of the list.

These compounds were tested on Wild type (assay: growth inhibition of S. aureus wild type versus tarO mutant, primary screen, teichoic acid synthesis inhibitors, RN4220, OD600 (AID 463173)). Conditions: S. aureus RN4220 wild type/DeltatarO growth, OD600, 18 h, stronger effect = lower value, screened at 18.75 µg/mL (by protocol).

Row | SMILES | survival
1 | Cc1nc2c(cnn2-c2ccccc2)c(=O)n1-c1ccccc1 | inactive: 126%
2 | O=C(Cn1c(-c2cccs2)cc2ccccc21)N1CCN(c2ccccc2F)CC1 | inactive: 138%
3 | COc1ccc(NC(=O)CSC2=Nc3ccccc3C3=NC(CC(=O)NCc4ccco4)C(=O)N23)cc1 (stereo not drawn) | inactive: 66%
4 | CCN(C(=O)CSc1nnc(-c2cc(OC)c(OC)c(OC)c2)o1)c1ccccc1 | inactive: 87%
5 | Clc1ccc(CCNc2nc3ccccc3c3nc(-c4ccccc4)nn23)cc1 | inactive: 38%
6 | Cc1cc(C)nc(N(C#N)CC(=O)c2ccccc2)n1 | inactive: 121%
7 | CCOc1ccc(NC(=O)Cn2cc(C(=O)c3cccs3)c3ccccc32)cc1 | inactive: 75%
8 | CC(OC(=O)c1cc2sccc2n1C)C(=O)NCC1CCCO1 (stereo not drawn) | inactive: 107%
9 | CCOc1cccc(CC(=O)NCc2ccc3c(c2)CCN3C(=O)c2ccc(F)cc2)c1OCC | inactive: 71%
10 | Cc1ccc(C(=O)N(Cc2ccco2)Cc2ccco2)cc1 | inactive: 82%
11 | CCOc1cc(CNC(=O)c2ccccc2NC(=O)c2nsc3ccccc23)ccc1OC | inactive: 72%
12 | O=C(CSc1nc2ncccc2[nH]1)Nc1cc(F)ccc1F | inactive: 75%
13 | O=C(CCn1c(=O)c2cccn2c2cccnc21)NCc1ccccc1Cl | inactive: 86%
14 | CCOc1ccc(C(=O)c2cn(CC(=O)Nc3ccc4c(c3)OCO4)c3ccc(OC)cc3c2=O)cc1 | inactive: 95%
15 | O=C(NCC(c1cccnc1)N1CCN(c2ccccc2F)CC1)C(=O)Nc1ccc(F)cc1F (stereo not drawn) | inactive: 89%
16 | COc1cccc(N2CCN(C(=O)C3CCCN(S(=O)(=O)c4cccc5nsnc45)C3)CC2)c1 (stereo not drawn) | inactive: 80%
17 | Cc1ccc(CNC(=O)CCc2c(C)nn(-c3ccc(N4CCOCC4)nn3)c2C)cc1 | inactive: 135%
18 | COc1ccc2[nH]c3c(c2c1)CCn1c-3nc2ccccc2c1=O | inactive: 114%
19 | O=C(Nc1cccc(Cl)c1)C1CCCN(c2nn3cc(-c4ccc(F)cc4)nc3s2)C1 (stereo not drawn) | inactive: 68%
20 | CCn1c(=O)n(-c2ccc3c(c2)OCO3)c2nc(-c3ccc(C(C)C)cc3)nc(C(N)=O)c21 | inactive: 130%

Row | SMILES | survival
21 | CCOc1ccc2c(c1)c(=O)c(C(=O)c1ccc(CC)cc1)cn2CC(=O)Nc1ccccc1OC | inactive: 78%
22 | COc1ccc(OC)c(NC(=O)Cn2c(=O)c3cccn3c3ccccc32)c1 | inactive: 75%
23 | Cc1cc(C)nc(SCc2nnc(SCC(=O)N3c4ccccc4Sc4ccc(Cl)cc43)o2)n1 | inactive: 111%
24 | Cc1ccc(Cl)cc1NC(=O)CSc1nc2ccccc2c2nc(-c3ccccc3)nn12 | inactive: 126%
25 | CCOC(=O)C1CCN(C(=O)c2nn(-c3ccc(OC)c(Cl)c3)c(=O)c3c2c2ccccc2n3C)CC1 | inactive: 68%
26 | CCOc1ccc(C(=O)Nc2cc(-c3nc4cc(OC)ccc4o3)ccc2C)cc1[N+](=O)[O-] | inactive: 85%
27 | Cc1ccc(S(=O)(=O)c2cn(CC(=O)Nc3cccc(Cl)c3)c3ccccc3c2=O)cc1 | inactive: 91%
28 | O=C(Cn1cc(C(=O)C(F)(F)F)c2ccccc21)N1CCCCCC1 | inactive: 74%
29 | CC1(C)N=C(SCc2ccc(F)cc2)c2ccccc2N1 | inactive: 153%
30 | CCOc1ccccc1NC1(c2ccccc2)C(=O)c2ccccc2C1=O | inactive: 78%
31 | CC1CCCCN1CCCNC(=O)c1cc(Sc2cccc(Cl)c2)nc2ccccc12 (stereo not drawn) | inactive: 54%
32 | Cc1ccccc1CN1c2ccccc2-c2nc(SCC(=O)c3ccccc3)ncc2S1(=O)=O | inactive: 66%
33 | CCC(=O)N(Cc1ccco1)c1nc(-c2ccccc2)cs1 | inactive: 104%
34 | O=C(COc1ccc2ccccc2c1)NC1CC(=O)N(c2ccc(F)cc2)C1 (stereo not drawn) | inactive: 68%
35 | COc1ccc(NC(=O)C2CCCCN2)cc1OC (stereo not drawn) | inactive: 105%
36 | Cc1ccccc1OCc1nc2c3cnn(-c4cccc(F)c4)c3ncn2n1 | inactive: 93%
37 | Cc1c(CNC2CCCCC2)c(C(=O)O)c(C)n1Cc1ccccc1F | inactive: 88%
38 | CCNC(=O)c1ccc2c(c1)nc1n2CCCCC1 | inactive: 89%
39 | CCNC(=O)c1c(NC(=O)Cc2coc3ccc(CC)cc23)sc2c1CCCC2 | inactive: 92%
40 | O=C1CCCc2nc(N3CCOCC3)sc21 | inactive: 89%

Row | SMILES | survival
41 | CCCCNC(=O)c1c(-c2ccccc2)c(-c2ccccc2)nn(C)c1=O | inactive: 84%
42 | Cc1oc2ncn(CC(C)C)c(=O)c2c1C(=O)N(CCN(C)C)Cc1ccccc1 | inactive: 99%
43 | Cc1ccc2c(c1)N(C(=O)N1CCC(C(=O)NCc3ccccc3C)CC1)CC(C)O2 (stereo not drawn) | inactive: 90%
44 | CCCCNC(=O)c1ccc2c(c1)N(CC)C(=O)c1ccccc1S2 | inactive: 135%
45 | COc1cccc(-n2cnc3scc(-c4cccs4)c3c2=O)c1 | inactive: 113%
46 | COc1cccc(C2C(C(=O)Nc3ccc(Cl)cc3)=C(C)Nc3nc4ccccc4n32)c1OC (stereo not drawn) | inactive: 106%
47 | CC(=O)N1CCCc2cc(S(=O)(=O)N3CCN(c4ccccc4F)CC3)ccc21 | inactive: 45%
48 | CCOC(=O)c1c(C)n(-c2ccccc2)c2ccc(OC(=O)COc3ccccc3)cc12 | inactive: 76%
49 | COc1ccc(N2CCN(C(=O)C3CCCN(C(=O)c4cc5sccc5n4C)C3)CC2)cc1 (stereo not drawn) | inactive: 130%
50 | CCCc1nnc(NC(=O)c2cc(=O)c3ccccc3o2)s1 | inactive: 83%
51 | CC(=O)N1c2ccc(S(=O)(=O)NCc3ccccc3Cl)cc2CC1C (stereo not drawn) | inactive: 82%
52 | O=C(O)CCNc1ccc2c(c1)OCCO2 | inactive: 108%
53 | CC1=C(C(=O)Nc2cccnc2)C(c2cccc(F)c2)n2nc(SCc3ccccc3F)nc2N1 (stereo not drawn) | inactive: 91%
54 | COc1ccc(C)cc1NC(=O)c1cc(S(=O)(=O)N2CCOCC2)cn1C | inactive: 83%
55 | O=C(CSc1nc(=O)[nH]c2c1CCCC2)NCc1ccccc1Cl | inactive: 135%
56 | CCCCNC(=O)CN1C(=O)c2cccnc2Sc2ccccc21 | inactive: 81%
57 | CCOc1ccccc1NC(=O)CCCc1nc(-c2ccccc2Cl)no1 | inactive: 74%
58 | COc1ccc(CNC(=O)CCS(=O)(=O)c2cc(Br)cc3c2N(C(C)=O)C(C)C3)cc1 (stereo not drawn) | inactive: 84%
